Hit rate of the full screen: of about 110,000 compounds, about 230 (0.21%) showed an effect of 50% or more. The list shows a part of the results.
target: DPAP1 (Plasmodium falciparum, UniProt Q8IIJ9); experiment: primary screen, percent inhibition; read by cleavage of a fluorogenic dipeptide substrate; higher = more effect of the substance; set-up: species or system P. falciparum D10 trophozoite lysates; single well
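Note: 30 min substrate incubation versus DMSO and 10 µM JCP410 controls.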

Sequence of DPAP1 (Q8IIJ9 whole entry, looked up): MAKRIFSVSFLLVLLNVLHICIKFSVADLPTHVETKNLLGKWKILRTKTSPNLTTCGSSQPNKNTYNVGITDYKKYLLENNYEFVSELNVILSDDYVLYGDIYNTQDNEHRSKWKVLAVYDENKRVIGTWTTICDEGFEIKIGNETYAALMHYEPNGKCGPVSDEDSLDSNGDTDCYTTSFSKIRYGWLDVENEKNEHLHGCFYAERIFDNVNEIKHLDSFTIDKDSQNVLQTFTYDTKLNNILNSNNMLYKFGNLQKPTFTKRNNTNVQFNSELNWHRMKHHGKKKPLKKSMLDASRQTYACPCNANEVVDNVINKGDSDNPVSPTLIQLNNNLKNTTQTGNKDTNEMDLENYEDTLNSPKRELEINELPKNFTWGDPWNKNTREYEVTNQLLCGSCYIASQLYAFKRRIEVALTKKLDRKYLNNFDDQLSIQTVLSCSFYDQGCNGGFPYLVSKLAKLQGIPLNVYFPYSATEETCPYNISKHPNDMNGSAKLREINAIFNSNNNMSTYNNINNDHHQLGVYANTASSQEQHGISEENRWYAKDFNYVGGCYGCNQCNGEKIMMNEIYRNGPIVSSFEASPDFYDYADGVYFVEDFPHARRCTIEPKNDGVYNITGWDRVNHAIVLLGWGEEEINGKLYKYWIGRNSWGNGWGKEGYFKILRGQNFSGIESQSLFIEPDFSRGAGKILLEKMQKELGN

Row | Compound | % Inhibition @ 10 uM
1 | Cc1ccc(-c2cc(C(=O)N3CCOCC3)c3ccccc3n2)cc1 | 3.49%
2 | Cc1ccc(N2CCN(S(=O)(=O)c3ccccc3)CC2)c(C)c1 | -2.67%
3 | CCN(CC)CCNC(=O)C1CCCc2c1[nH]c1c(C(=O)O)cccc21 (centres unmarked) | 3.96%
4 | COc1cccc(C(=O)ON=C2C=CC(=O)C=C2)c1 | 0.146%
5 | COc1ccc(CN2CCN(Cc3cccnc3)CC2)c(OC)c1OC | -9.68%
6 | O=C(CCCn1sc2ccccc2c1=O)NCc1cccc(Cl)c1 | -1.06%
7 | COc1ccc(CCNC(=O)Cn2ccc3cc(S(=O)(=O)N4CCCC4)ccc32)cc1OC | 4.14%
8 | S=c1[nH]c(=S)c2c3c(sc2[nH]1)CCC3 | 85.2%
9 | CC(CCc1ccccc1)NC(=O)C1CCN(c2nc3ccccc3n3cccc23)CC1 (centres unmarked) | -1.08%
10 | OC1CCN(C2CC3CCC2C3)CC1 (centres unmarked) | -6.62%
11 | COc1ccc(N2CCN(c3ccc(-n4cnnc4O)cc3)CC2)cc1 | 9.53%
12 | CCOC(=O)N1CCC(NC(=O)Cn2ncc3ccc(C)cc32)CC1 | -1.11%
13 | Brc1ccccc1CN1CCN(Cc2cccnc2)CC1 | -5.69%
14 | Cc1cc2c(cc1C)C(c1cc3c(cc1Br)OCO3)CC(=O)N2 (centres unmarked) | 10.6%
15 | COc1ccc(C(=O)NC2(C(F)(F)F)C(=O)Nc3c2c(=O)[nH]c(=O)n3-c2ccc(Cl)cc2)cc1 (centres unmarked) | 1.36%
16 | Cc1nn2c(=O)/c(=C/c3cn(-c4ccccc4)nc3-c3ccccc3)sc2nc1=O | -5.62%
17 | CC(=O)n1nc(C)c2c1CC(C)(C)CC2=O | -4.43%
18 | Nc1c(C(=O)Nc2ccccc2C(=O)O)sc2nc3c(cc12)CCCCCC3 | -0.992%
19 | CC(Oc1ccc(F)cc1)C(=O)Nc1ccccc1C(F)(F)F (centres unmarked) | 1.28%
20 | COc1ccc(C2CC3=Nc4ccccc4NC(c4cccc(O)c4)C3=C(O)C2)cc1OC (centres unmarked) | -1.37%
21 | O=C(NCCc1c[nH]c2ccccc12)c1ccc2nc(N3CCCCC3)sc2c1 | -2.37%
22 | O=C1c2ccccc2CN1CCSC(=S)N1CCCCCC1 | -5.61%
23 | Nc1ncc(Br)cc1S(=O)(=O)NCCC(=O)NC1CCCc2ccccc21 (centres unmarked) | -3.42%
24 | CCOC(=O)N1CCN(C(C)CCc2ccccc2)CC1 (centres unmarked) | -1.82%
25 | Cc1cc(NS(=O)(=O)c2ccc(NC(=O)COc3ccc(C(C)C)cc3)cc2)nc(C)n1 | -1.84%
26 | CCN(CC)C(=O)CSc1nc(O)cc(=O)n1CC | 1.83%

Row | Compound | % Inhibition @ 10 uM
27 | O=C(C1CCCN(c2nc3ccccc3n3cccc23)C1)N1CCN(Cc2ccccc2)CC1 (centres unmarked) | -0.205%
28 | CCC(C(=O)NC(C)c1ccccc1)n1nc(C)n2c(cc3sccc32)c1=O (centres unmarked) | -3.35%
29 | COc1cc(NC(=O)c2cc([N+](=O)[O-])ccc2Cl)c(OC)cc1Cl | -3.79%
30 | C#CCOc1ccc2ccccc2c1/C=C1/NC(=O)N(Cc2ccccc2F)C1=O | -1.81%
31 | CC1CCN(C(=O)C2c3ccccc3C(=O)N(C)C2c2cccs2)CC1 (centres unmarked) | -0.228%
32 | CCOc1ccc(-c2cc(/N=C(/NCc3ccco3)SC)[nH]n2)cc1 | -0.551%
33 | COC(=O)c1cc(S(=O)(=O)NCc2ccc(C)cc2)cn1C | 5.48%
34 | Cc1ccc(-c2cc(C(=O)N3CCN(C)CC3)no2)cc1 | 1.7%
35 | CN(C)c1ccc(C2C(C(=O)c3cc4ccccc4o3)=C(O)C(=O)N2CCCn2ccnc2)cc1 (centres unmarked) | 4.25%
36 | Cc1ccc(NC(=O)CN2C(=O)S/C(=C\c3cccn3C)C2=O)cc1 | -2.21%
37 | Cc1ccccc1NC(=O)c1ccccc1O | 1.83%
38 | Cc1nc(NC(=O)Cn2cnc3c(=O)n(C)c(=O)n(C)c32)ccc1Br | -1.17%
39 | N#Cc1ccc(Cn2cnc3ccccc3c2=O)cc1 | 0.528%
40 | c1ccc(-c2nccnn2)cc1 | -4.98%
41 | COc1ccc(CC/N=C2\SCC(=O)N2Cc2ccccc2)cc1OC | -0.053%
42 | Cc1c(C(=O)O)oc2c1-c1nn(Cc3c(F)cccc3Cl)cc1CC2 | 4.79%
43 | CCC(C)Cn1c(CO)nc2ccccc21 (centres unmarked) | -0.512%
44 | O=C(Nc1ccccc1)N1CCN(C/C=C/c2ccccc2)CC1 | -0.192%
45 | CN(C1CCCCC1)S(=O)(=O)N1CCCC(C(=O)NC2CCCCCC2)C1 (centres unmarked) | -7.53%
46 | COc1cccc(OCCCCCN2CCCCC2)c1 | 2.94%
47 | CCOC(=O)c1oc2c(c1C)-c1n[nH]cc1CC2 | 7.81%
48 | CCOC(=O)c1c(C)c(C(=O)NCCCc2ccccc2)c(C)n1CC | 0.0579%
49 | COc1ccccc1CNC(=O)CCN1C(=O)c2ccccc2Sc2ncccc21 | 1.26%
50 | O=C(NCc1ccccc1)c1cc2nc(-c3ccccc3)cc(C(F)(F)F)n2n1 | 1.87%
51 | Cc1cccc(-c2cccc(C(=O)O)c2)c1 | -4.26%
52 | Cc1nn(C)c(C(=O)N2CCc3ccccc32)c1Cl | 0.385%

Row | Compound | % Inhibition @ 10 uM
53 | Cc1ccc(N2CCN(CN3C(=O)S/C(=C/c4ccco4)C3=O)CC2)cc1 | 2.22%
54 | CC1CCN(Cc2c(O)nc(O)nc2O)CC1 | -4.93%
55 | Cc1cc(=O)oc2cc(OCC(=O)NCCO)ccc12 | -6.17%
56 | N#CCC(=O)N1CCN(C(c2ccccc2)c2ccccc2)CC1 | -5.06%
57 | CCc1ccc(CNCCSc2nnnn2-c2ccccc2)cc1 | 2.05%
58 | Cc1ccc(S(=O)(=O)N(CC(=O)N(C)Cc2ccccc2)c2ccc(F)cc2)cc1 | 9.48%
59 | CN(CCNC(=O)c1cc2c(-c3ccccc3F)nn(C)c2s1)C1CCCCC1 | -3.94%
60 | Cc1ccc(N2C(=O)CC(N3CCCCCC3)C2=O)cc1C (centres unmarked) | -5.67%
61 | COc1cccc(N(CC(=O)Nc2ccc(C)cc2)S(=O)(=O)c2ccc(C)cc2)c1 | 1.57%
62 | O=C(O)CCCc1cc2c(s1)CCC/C2=N\O | -1.74%
63 | Cc1ccc(COC(=O)N[C@@H](CC(C)C)C(=O)NCC#N)c(C)c1 | -1.41%
64 | Cc1ccc(S(=O)(=O)NCC(=O)N2CCN(c3ccccn3)CC2)cc1 | 0.64%
65 | Cc1cc(C(F)F)n2nc(C(=O)Nc3cccnc3Cl)nc2n1 | -4.62%
66 | CCC(=O)/N=C(/Nc1ccc(C)cc1)Nc1nc(C)cc(C)n1 | -7.94%
67 | CCCCN1CCCn2c1nc1c2c(=O)n(C)c(=O)n1C | 6.07%
68 | O=C1C2C3C=CC(C3)C2C(=O)N1Cc1cccnc1 (centres unmarked) | 18.5%
69 | NC(=O)c1nnc(Cc2ccc(Cl)cc2)o1 | -5.93%
70 | O=C(Nc1cc(Cl)cc(Cl)c1)c1ccc([N+](=O)[O-])cc1 | 1.91%
71 | CCOc1ccc(N2C(=O)CC(NCc3cccc(Cl)c3)C2=O)cc1 (centres unmarked) | 7.02%
72 | c1ccc(N2CCN(Cc3cccnc3)CC2)nc1 | -4.61%
73 | CCCNC(=O)CCc1nnc2ccc(N3CCC(C)CC3)nn12 | -3.73%
74 | C=CCn1c(SCCCCCC)nc2c1c(=O)n(C)c(=O)n2C | -0.968%
75 | COc1ccc2[nH]c(SCC(=O)Nc3cccc(C)c3)nc2c1 | 1.03%
76 | CCCCCC(=O)Nc1ccccc1C(=O)O | -0.25%
77 | Cc1nc2nc(NCc3ccccc3F)nn2c(O)c1Cc1ccccc1 | 4.18%
78 | Cc1cc(CNC(=O)C2CCCCC2)c2ccccc2n1 | 2.79%

Row | Compound | % Inhibition @ 10 uM
79 | CCCCNC(=O)CN(c1ccc(OC)cc1)S(C)(=O)=O | 12.1%
80 | CC(=O)c1cccc(NC(=O)c2cnn(C)c2)c1 | 0.206%
81 | Cc1ccc(OCCCCCN2CCNCC2)cc1 | -0.473%
82 | CCOc1ccc(C=C2C(=O)NC(=S)NC2=O)c(OCC)c1 | 1.29%
83 | COC(=O)C1=C(C)N(CC2CCCO2)C(=O)/C1=C\c1cc(OC)c(OC)c(OC)c1 (centres unmarked) | 0.147%
84 | Cc1cc(C)n(C(=O)c2cc(-c3ccc(C)o3)nc3ccccc23)n1 | -1.1%
85 | C=CCSC1=C(C#N)C(c2ccccc2Cl)CC(=O)N1 (centres unmarked) | 0.673%
86 | CN1CCC(N2C[C@@H]3C[C@H](C2)c2cccc(=O)n2C3)CC1 | -0.711%
87 | CC(C(=O)O)N1C(=O)CSc2ncccc21 (centres unmarked) | 0.0882%
88 | O=Cc1c[nH]c2ccc(S(=O)(=O)N3CCCCC3)cc12 | -7.36%
89 | CC1CCc2c(sc(NC(=O)c3cccc(S(=O)(=O)NCc4ccccc4)c3)c2C#N)C1 (centres unmarked) | -4.35%
90 | Cc1cccc(-n2nnc(-c3nc(-c4cccnc4)no3)c2N)c1C | -1.87%
91 | CCOC(=O)N1CCN(CCCCCCC=C(C)C)CC1 | -5.94%
92 | N#CC1(c2ccccc2)CCc2c(sc3ncnc(Cl)c23)C1 (centres unmarked) | -3.75%
93 | CCOc1cc(NC(=O)c2ccccc2C)c(OCC)cc1N | 1.92%
94 | COc1ccc(-c2[nH]nc3nc(-c4ccc(C(F)(F)F)cc4)cc(C(=O)O)c23)cc1 | -1.19%
95 | CCC(CC)C(=O)Nc1ccc(NC(C)=O)cc1 | -2.19%
96 | CN(C)CCOC(=O)C12CC3CC(C)(CC(C)(C3)C1)C2 | -4.24%
97 | O=c1cc(CSc2nc(NCc3ccccc3)c3ccccc3n2)nc2ccc(Cl)cn12 | -2.21%
98 | NC(=O)Nc1ccccc1C(=O)Nc1ccc(F)cc1 | -6.57%
99 | O=C(O)C1CC(=O)N(Cc2ccc3c(c2)OCO3)C1 (centres unmarked) | -2.58%
100 | CC(=O)c1c(O)c2cccc3c2n(c1=O)C(C)CC3 (centres unmarked) | 5.66%
101 | COc1ccc(CCC(=O)Nc2[nH]nc3nc4cc(OC)ccc4cc23)cc1 | -3.94%
102 | CCOc1ccc(-c2nc(C#N)c(NCCOC)o2)cc1 | 2%
103 | Cc1cc(O)c(C2=NCCSC(c3ccc(Cl)cc3)C2)c(=O)o1 (centres unmarked) | -0.415%
104 | COc1cc(C(=O)N2c3ccc(F)cc3CCC2C)cc(OC)c1OC (centres unmarked) | 0.13%
